# From the supplement of paper PMC4166925
# ± gives the standard deviation of the averaged measurements. Over roughly 33,000 sequences, “E-score (dimensionless, -0.5 to 0.5)” has its median near -0.049; the highest 2% begin near 0.37. The list shows a part of the results.
# Tested on: T1, PmTbr T-box DNA-binding domain (GST fusion)
# T1 sequence: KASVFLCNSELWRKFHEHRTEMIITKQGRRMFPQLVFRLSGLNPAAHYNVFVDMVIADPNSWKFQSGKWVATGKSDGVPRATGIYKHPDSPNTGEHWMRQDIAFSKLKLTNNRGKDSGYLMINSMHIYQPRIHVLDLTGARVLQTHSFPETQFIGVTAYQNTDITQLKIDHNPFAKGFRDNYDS
# Experiment: PBM E-score of 8-mer (E-score (dimensionless, -0.5 to 0.5)); Tbr is Tbrain of the sea star Patiria miniata (Pm) or the sea urchin Strongylocentrotus purpuratus (Sp); higher = stronger binding preference; most listed sequences are background and not binding sites
# Details: the construct has about 5 more residues each side
# Method: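 Universal protein-binding microarray (Agilent AMADID 016060, 60-bp probes with a 35-bp variable region) incubated with 200 nM GST-fused Patiria miniata Tbr T-box DNA-binding domain (residues 272-466) in PBS pH 7.5. Scored for every ungapped 8-mer (given with its reverse complement) by the Universal PBM Analysis Suite as E-score (modified Wilcoxon-Mann-Whitney enrichment, range -0.5 to 0.5; >0.45 counts as bound) and Z-score of median probe intensity. Two replicate arrays (datasets 1 and 2).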
row,Sequence,PBM E-score of 8-mer
1,ACGACCCA,-0.0037 ± 0.018
2,GCATGCTA,0.107 ± 0.033
3,ACATCTCT,-0.00486 ± 0.058
4,CTAGCTTC,-0.093 ± 0.058
5,AACATTTG,0.0235 ± 0.04
6,GGCAAAAA,0.0558 ± 0.047
7,AAAACGCG,0.189 ± 0.037
8,AGTCGTCA,0.223 ± 0.042
9,ACCACCTC,0.341 ± 0.027
10,TGGCCAAA,-0.121 ± 0.043
11,GGAGGGTA,0.0367 ± 0.054
12,CCCTACAA,-0.041 ± 0.031
13,CGCCAGTA,0.123 ± 0.02
14,GATTCGCC,0.000945 ± 0.017
15,CAGTTTCC,-0.0713 ± 0.018
16,GATCGTAC,-0.14552 ± 5.7e-05
17,AAGGTCCG,-0.208 ± 0.068
18,ACCGGAGC,-0.214 ± 0.025
19,CGGCATCC,-0.109 ± 0.04
20,AAGCAGGT,0.1547 ± 0.00098
21,CAACCTCG,0.0578 ± 0.0012
22,CGAATACG,0.0138 ± 0.0012

row,Sequence,PBM E-score of 8-mer
1,CTGTAAAC,0.0517 ± 0.06
2,TAGAGGGA,-0.0723 ± 0.04
3,CGTATACC,-0.0524 ± 0.038
4,ACGCCACA,0.148 ± 0.057
5,CTTCCCTC,-0.22484 ± 0.00012
6,ACCTCCCT,0.055 ± 0.044
7,AGTAAGTC,-0.207 ± 0.033
8,CCAATCTA,-0.137 ± 0.017
9,AATCCCGC,-0.199 ± 0.0081
10,GCCTGACA,0.23 ± 0.03
11,CTATCTAC,-0.0836 ± 0.027
12,TCTGTGCA,-0.13 ± 0.065
13,TACCAACA,0.135 ± 0.0073
14,TGGAGAAA,0.00726 ± 0.093
15,GGTCAACC,-0.126 ± 0.004
16,CCTCAGCC,-0.06 ± 0.04
17,AGCTTTAA,-0.256 ± 0.049
18,GAATCGTA,-0.115 ± 0.011
19,GAGAGCAA,-0.0151 ± 0.0081
20,AGATTACA,-0.1 ± 0.028
21,GCTAAACC,0.109 ± 0.0076
22,ACTAAGAC,0.04 ± 0.012

row,Sequence,PBM E-score of 8-mer
1,GTTCGCGA,0.338 ± 0.019
2,CTGTCCCA,0.0449 ± 0.02
3,CTCGTCAA,0.141 ± 0.04
4,GAGCCGCC,-0.114 ± 0.044
5,AGTTATAC,-0.0366 ± 0.0057
6,ACCGAGAC,-0.175 ± 0.07
7,GCATGTCA,-0.0206 ± 0.061
8,GCTTCAAC,-0.193 ± 0.061
9,CGTCGAAA,0.0712 ± 0.034
10,GGCCGAAC,-0.292 ± 0.0094
11,CCCTCCGG,0.0366 ± 0.049
12,CCAAAGAG,0.0215 ± 0.0046
13,TCGTATAA,-0.192 ± 0.035
14,AAATAACC,0.0174 ± 0.057
15,AATTTTGG,-0.0211 ± 0.053
16,GAGGTGAA,0.294 ± 0.0035
17,CAACCGTG,0.216 ± 0.013
18,CCCACATC,0.142 ± 0.065
19,ACGAGTAC,-0.1 ± 0.054
20,ATACGCCA,0.0158 ± 0.048
21,CACGCCCA,0.239 ± 0.007
22,AAGGAATA,-0.167 ± 0.018

row,Sequence,PBM E-score of 8-mer
1,CGGCGGGA,0.00891 ± 0.1
2,AGAGGAGG,0.184 ± 0.048
3,CTATCGAG,0.139 ± 0.066
4,CCGTACTC,-0.204 ± 0.04
5,GGTCACCA,-0.127 ± 0.052
6,GCCGCCTA,-0.176 ± 0.021
7,AAGCTAAT,-0.209 ± 0.053
8,CGTGGGGC,-0.0412 ± 0.069
9,AGTTATCG,0.0442 ± 0.042
10,CTGTGTAC,-0.216 ± 0.043
11,ACCAACAT,-0.0497 ± 0.017
12,CCAGCGAA,0.141 ± 0.012
13,CAGATCCA,-0.0377 ± 0.038
14,CAGGTGAA,0.1748 ± 0.0016
15,CCAAAACC,0.0649 ± 0.035
16,GTCAACAA,0.293 ± 0.013
17,AGCCAGCC,-0.22 ± 0.12
18,ACTGTCTG,0.0484 ± 0.067
19,AAATAGTA,-0.103 ± 0.029
20,AGTGTGCC,0.125 ± 0.0018
